{"source": "the supplement of paper PMC12067230", "note": "This is a noisy data set.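 Also: [psi-pin-] Saccharomyces cerevisiae expressing SupN fusions, induced by 100 µM Cu2SO4, selected 7 d at 30 °C without adenine and uracil, scored by deep sequencing of output versus input.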", "data": [{"test": "amyloid nucleation score relative to library mode (yeast Sup35 reporter selection) (log enrichment difference); higher = more amyloid nucleation", "settings": "random library (experiment): 1;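 active = nucleation score significantly above 0 at FDR 0.05; inactive = not significantly above 0 or absent from output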", "method": "(§1)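 Random C-terminal extensions of the 22-aa Bri2 peptide by 12 NNK codons; premature stops give shorter extensions. Peptides were fused to the Sup35 nucleation domain in S. cerevisiae [psi-pin-] and selected on -ADE-URA plates for 7 d at 30 °C. The nucleation score is log(output/input), centred to the mode of each of 3 independent libraries (1 input, 3 technical output replicates), with duplicates merged. Sequences absent from the output ('random_non_nuc') were imputed with the library mode value, so they are given as censored (<). Nucleators are scores significantly >0 at FDR 0.05.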", "values": [{"sequence": "EASNCFAIRHFENKFAVETLICCNDCYVGATLDA", "amyloid nucleation score": 6.34}, {"sequence": "EASNCFAIRHFENKFAVETLICCNEQVCLWNSGL", "amyloid nucleation score": 7.74}, {"sequence": "EASNCFAIRHFENKFAVETLICCNEVGQSNCASM", "amyloid nucleation score": 6.2}, {"sequence": "EASNCFAIRHFENKFAVETLICCNGLWKGVVVTL", "amyloid nucleation score": 5.01}, {"sequence": "EASNCFAIRHFENKFAVETLICCNGNLGRTGRAS", "amyloid nucleation score": "inactive"}, {"sequence": "EASNCFAIRHFENKFAVETLICCNGWFCWGGKTK", "amyloid nucleation score": 9.31}, {"sequence": "EASNCFAIRHFENKFAVETLICCNIDQLQKGCVY", "amyloid nucleation score": 3.74}, {"sequence": "EASNCFAIRHFENKFAVETLICCNIVCASVAVRL", "amyloid nucleation score": 6.51}, {"sequence": "EASNCFAIRHFENKFAVETLICCNLKGYVSRFGP", "amyloid nucleation score": 7.55}, {"sequence": "EASNCFAIRHFENKFAVETLICCNRWGVWDKRVV", "amyloid nucleation score": 3.37}, {"sequence": "EASNCFAIRHFENKFAVETLICCNSGSYPASSET", "amyloid nucleation score": 8.06}, {"sequence": "EASNCFAIRHFENKFAVETLICCNVRSEHVWEGS", "amyloid nucleation score": 8.74}, {"sequence": "EASNCFAIRHFENKFAVETLICCNVSKQ", "amyloid nucleation score": 8.08}, {"sequence": "EASNCFAIRHFENKFAVETLICCNVTTAP", "amyloid nucleation score": 6.69}, {"sequence": "EASNCFAIRHFENKFAVETLICCNYALASSDTRL", "amyloid nucleation score": 8.45}, {"sequence": "EASNCFAIRHFENKFAVETLICCPACAP", "amyloid nucleation score": 0.531}, {"sequence": "EASNCFAIRHFENKFAVETLICCPATRRREAGSG", "amyloid nucleation score": "inactive"}, {"sequence": "EASNCFAIRHFENKFAVETLICCPFELR", "amyloid nucleation score": 6.74}, {"sequence": "EASNCFAIRHFENKFAVETLICCPFNPTLPFPLG", "amyloid nucleation score": 7.57}, {"sequence": "EASNCFAIRHFENKFAVETLICCPKRLSWECGQR", "amyloid nucleation score": 3}, {"sequence": "EASNCFAIRHFENKFAVETLICCPLPLQRHVGGN", "amyloid nucleation score": 4.36}, {"sequence": "EASNCFAIRHFENKFAVETLICCPLWHSTRINTG", "amyloid nucleation score": 8.59}, {"sequence": "EASNCFAIRHFENKFAVETLICCPNYCVKNCI", "amyloid nucleation score": 4.62}, {"sequence": "EASNCFAIRHFENKFAVETLICCPPCQYRRALS", "amyloid nucleation score": "inactive"}, {"sequence": "EASNCFAIRHFENKFAVETLICCPRSTKLRVEYS", "amyloid nucleation score": "inactive"}, {"sequence": "EASNCFAIRHFENKFAVETLICCPSVRGGLGPSA", "amyloid nucleation score": "inactive"}, {"sequence": "EASNCFAIRHFENKFAVETLICCPVGE", "amyloid nucleation score": 5.01}, {"sequence": "EASNCFAIRHFENKFAVETLICCPVLFKWTVALT", "amyloid nucleation score": 6.03}, {"sequence": "EASNCFAIRHFENKFAVETLICCPYCLVKLSGLC", "amyloid nucleation score": "inactive"}, {"sequence": "EASNCFAIRHFENKFAVETLICCQ", "amyloid nucleation score": "inactive"}, {"sequence": "EASNCFAIRHFENKFAVETLICCQHQYMTCYCSV", "amyloid nucleation score": 4.77}, {"sequence": "EASNCFAIRHFENKFAVETLICCQIATLVTLAIL", "amyloid nucleation score": "inactive"}, {"sequence": "EASNCFAIRHFENKFAVETLICCQKAGSTRGALV", "amyloid nucleation score": "inactive"}, {"sequence": "EASNCFAIRHFENKFAVETLICCQKSRGSANVQT", "amyloid nucleation score": -0.288}, {"sequence": "EASNCFAIRHFENKFAVETLICCQLSPR", "amyloid nucleation score": 7.53}, {"sequence": "EASNCFAIRHFENKFAVETLICCQS", "amyloid nucleation score": 5.49}, {"sequence": "EASNCFAIRHFENKFAVETLICCQTWMHKKKGTS", "amyloid nucleation score": 2.98}, {"sequence": "EASNCFAIRHFENKFAVETLICCQVRLTGIGRAY", "amyloid nucleation score": -0.648}, {"sequence": "EASNCFAIRHFENKFAVETLICCQVSGVITFLVL", "amyloid nucleation score": 5.2}, {"sequence": "EASNCFAIRHFENKFAVETLICCQWGVKNCLCPF", "amyloid nucleation score": 7.08}, {"sequence": "EASNCFAIRHFENKFAVETLICCQYHQNGLGWYR", "amyloid nucleation score": 6.94}, {"sequence": "EASNCFAIRHFENKFAVETLICCR", "amyloid nucleation score": -0.698}, {"sequence": "EASNCFAIRHFENKFAVETLICCRADMSQMYM", "amyloid nucleation score": 7.34}, {"sequence": "EASNCFAIRHFENKFAVETLICCRCCTERGCV", "amyloid nucleation score": 6.89}, {"sequence": "EASNCFAIRHFENKFAVETLICCRCPRTR", "amyloid nucleation score": 5.54}, {"sequence": "EASNCFAIRHFENKFAVETLICCREESPWQHAGK", "amyloid nucleation score": "inactive"}, {"sequence": "EASNCFAIRHFENKFAVETLICCREHGPTPSRQM", "amyloid nucleation score": 2.2}, {"sequence": "EASNCFAIRHFENKFAVETLICCREVDCSLSF", "amyloid nucleation score": 2.08}]}, {"test": "amyloid nucleation score relative to library mode (yeast Sup35 reporter selection) (log enrichment difference); higher = more amyloid nucleation", "settings": "random library (experiment): 2", "method": "as §1", "values": [{"sequence": "EASNCFAIRHFENKFAVETLICCNDCMVFSIIGS", "amyloid nucleation score": 7.82}, {"sequence": "EASNCFAIRHFENKFAVETLICCNMWLVVWYI", "amyloid nucleation score": 4.14}, {"sequence": "EASNCFAIRHFENKFAVETLICCNNGCICMPTLL", "amyloid nucleation score": 9}, {"sequence": "EASNCFAIRHFENKFAVETLICCNRNAAAIIIWL", "amyloid nucleation score": "inactive"}, {"sequence": "EASNCFAIRHFENKFAVETLICCNRV", "amyloid nucleation score": 6.75}, {"sequence": "EASNCFAIRHFENKFAVETLICCNSCCQYKPIRW", "amyloid nucleation score": 6.52}, {"sequence": "EASNCFAIRHFENKFAVETLICCNVLKGFWVEWM", "amyloid nucleation score": 7.44}, {"sequence": "EASNCFAIRHFENKFAVETLICCNVYFPSFFDRL", "amyloid nucleation score": 9.1}, {"sequence": "EASNCFAIRHFENKFAVETLICCPALYIISNCSI", "amyloid nucleation score": 7.04}, {"sequence": "EASNCFAIRHFENKFAVETLICCPDKPS", "amyloid nucleation score": -0.262}, {"sequence": "EASNCFAIRHFENKFAVETLICCPDNETALRFKM", "amyloid nucleation score": "inactive"}, {"sequence": "EASNCFAIRHFENKFAVETLICCPSLWCVIVI", "amyloid nucleation score": 5.41}, {"sequence": "EASNCFAIRHFENKFAVETLICCPVVYSGANS", "amyloid nucleation score": 6.51}, {"sequence": "EASNCFAIRHFENKFAVETLICCPVWRSFVAW", "amyloid nucleation score": 8.59}, {"sequence": "EASNCFAIRHFENKFAVETLICCPWVSGFCEHRF", "amyloid nucleation score": 8.6}, {"sequence": "EASNCFAIRHFENKFAVETLICCQFVSWCTPNVS", "amyloid nucleation score": 7.34}, {"sequence": "EASNCFAIRHFENKFAVETLICCQGVCDSRVCPG", "amyloid nucleation score": 6.75}, {"sequence": "EASNCFAIRHFENKFAVETLICCQHLDWEVLSTV", "amyloid nucleation score": "inactive"}, {"sequence": "EASNCFAIRHFENKFAVETLICCQMRV", "amyloid nucleation score": 1.11}, {"sequence": "EASNCFAIRHFENKFAVETLICCRAVLEFGMEAS", "amyloid nucleation score": "inactive"}, {"sequence": "EASNCFAIRHFENKFAVETLICCRCEYVSVNVDN", "amyloid nucleation score": 6.99}, {"sequence": "EASNCFAIRHFENKFAVETLICCREDTGMPGSAP", "amyloid nucleation score": "inactive"}, {"sequence": "EASNCFAIRHFENKFAVETLICCRERKYHPTMCL", "amyloid nucleation score": "inactive"}]}, {"test": "amyloid nucleation score relative to library mode (yeast Sup35 reporter selection) (log enrichment difference); higher = more amyloid nucleation; sequences are the first 22 residues of the Bri2 peptide extended by up to 12 random residues", "settings": "random library (experiment): 3", "method": "as §1", "values": [{"sequence": "EASNCFAIRHFENKFAVETLICCNDGPLRPSFCR", "amyloid nucleation score": 4.41}, {"sequence": "EASNCFAIRHFENKFAVETLICCNGVHCTMPLYR", "amyloid nucleation score": 5.5}, {"sequence": "EASNCFAIRHFENKFAVETLICCNLSRWGGFRLF", "amyloid nucleation score": 6.64}, {"sequence": "EASNCFAIRHFENKFAVETLICCNRMNTYTTGAS", "amyloid nucleation score": 7.16}, {"sequence": "EASNCFAIRHFENKFAVETLICCNSVLRFNFLR", "amyloid nucleation score": 4.49}, {"sequence": "EASNCFAIRHFENKFAVETLICCNW", "amyloid nucleation score": 8.11}, {"sequence": "EASNCFAIRHFENKFAVETLICCNYL", "amyloid nucleation score": 9.1}, {"sequence": "EASNCFAIRHFENKFAVETLICCPDMCLYHELMW", "amyloid nucleation score": 2.27}, {"sequence": "EASNCFAIRHFENKFAVETLICCPGTRPTRVSVG", "amyloid nucleation score": "inactive"}, {"sequence": "EASNCFAIRHFENKFAVETLICCPKFVASVGDTS", "amyloid nucleation score": 5.55}, {"sequence": "EASNCFAIRHFENKFAVETLICCPWIWFLVFLGR", "amyloid nucleation score": -0.203}, {"sequence": "EASNCFAIRHFENKFAVETLICCQARVVGERVFG", "amyloid nucleation score": "inactive"}, {"sequence": "EASNCFAIRHFENKFAVETLICCQECNKVTPGIT", "amyloid nucleation score": "inactive"}, {"sequence": "EASNCFAIRHFENKFAVETLICCQSWWVHGEKCM", "amyloid nucleation score": 0.845}, {"sequence": "EASNCFAIRHFENKFAVETLICCRAYACLCPASG", "amyloid nucleation score": "inactive"}, {"sequence": "EASNCFAIRHFENKFAVETLICCRCMR", "amyloid nucleation score": 7.73}, {"sequence": "EASNCFAIRHFENKFAVETLICCRDMSR", "amyloid nucleation score": 4.32}, {"sequence": "EASNCFAIRHFENKFAVETLICCRDRECRLSMMR", "amyloid nucleation score": "inactive"}]}]}
